A number of entries come with more than one value. The other results are left out here. There may be further records. Results that share an entry appear to be repeats (runs, samples, wells or individuals).
System: PANC-1 cells
Assay: Drug combination viability screen (ATPlite, 72 h)
Type: cell-based
Conditions: Homo sapiens
Protocol: Cell viability was assessed by measuring ATP levels to indicate metabolic activity.
Afterward, small amounts were transferred to 384-well intermediate plates (Greiner Bio-One GmbH, Germany). […] For drug combination screening, 1000 to 5000 cells were seeded into 384-well plates (CulturPlate™, Perkin Elmer, MA, USA) using a Multidrop™ Combi Reagent Dispenser (Thermo Scientific, MA, USA) in 50 µl medium per well 24 h prior to drug treatment (seeding densities see Appendix Table S1). […] The final DMSO concentration in each well was 0.2%. […] Eight wells per plate without library drug served as negative controls, and sixteen wells per plate containing 5 µM Staurosporine served as positive controls. Control plates not containing any drug were used to correct for incubation effects, and data quality was assessed by calculation of Z-prime of positive and negative controls according to1 Z-prime=1−3SDpos+3SDneg/[…] where SD is the standard deviation. […] Dose–response curves from the experimental and hypothetical data were compared, and shifts in AUC were used to describe combination effects (AUC∆ = AUChypothetical − AUCexperimental). […] Only combinations with R^2 > 0.8 in both conditions were considered in the synergy analysis.

With `Nc1ccn([C@@H]2O[C@H](CO)[C@@H](O)C2(F)F)c(=O)n1` [GEM, Gemcitabine] the EC50 was 72 nM and 72.4 nM [columns of one line].

From publication PMC11876601 (Molecular Systems Biology, 2025)
